Reference: the supplement of paper PMC4166925
± gives the standard deviation of the averaged measurements. Over roughly 33,000 sequences, “E-score (dimensionless, -0.5 to 0.5)” has its median near -0.046; the highest 2% begin near 0.36. This is one part of the list.

Test system: T1, SpTbr T-box DNA-binding domain (GST fusion)
T1 sequence: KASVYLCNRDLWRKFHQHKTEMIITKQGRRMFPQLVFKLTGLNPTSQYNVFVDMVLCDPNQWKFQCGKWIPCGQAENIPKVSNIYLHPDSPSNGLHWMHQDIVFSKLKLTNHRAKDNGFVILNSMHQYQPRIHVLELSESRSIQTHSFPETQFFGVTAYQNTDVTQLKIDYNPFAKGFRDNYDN
Assay: PBM E-score of 8-mer (E-score (dimensionless, -0.5 to 0.5)); Tbr is Tbrain of the sea star Patiria miniata (Pm) or the sea urchin Strongylocentrotus purpuratus (Sp); higher = stronger binding preference; most listed sequences are background and not binding sites
Conditions: the construct has about 5 more residues each side
Experimental: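 Universal protein-binding microarray (Agilent AMADID 016060, 60-bp probes with a 35-bp variable region) incubated with 200 nM GST-fused Strongylocentrotus purpuratus Tbr T-box DNA-binding domain (residues 362-554) in PBS pH 7.5. Scored for every ungapped 8-mer (given with its reverse complement) as E-score (range -0.5 to 0.5; >0.45 counts as bound) and Z-score of median probe intensity. Two replicate arrays (datasets 1 and 2).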
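Further: protein at 200 nM in PBS on universal double-stranded arrays.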

Sequence | PBM E-score of 8-mer
GGAGATAC | -0.243 ± 0.0034
CGTGACAA | 0.364 ± 0.0037
CTTCCCGA | 0.0262 ± 0.04
AACGCATT | 0.0395 ± 0.12
CCCCTCCC | -0.15 ± 0.049
AATCAAGA | -0.0943 ± 0.11
TAAAAGTA | -0.298 ± 0.071
ATGGCCCA | -0.167 ± 0.093
TGATAAAA | 0.116 ± 0.11
GATTTCAA | -0.221 ± 0.047
ATAGGACG | -0.386 ± 0.053
GGCTACCA | -0.2 ± 0.047
AGCCACCT | 0.062 ± 0.0076
ATGATTAG | 0.12 ± 0.0086
CGTTACGA | -0.0252 ± 0.082
GGTTCTGA | -0.214 ± 0.023
GCATGCGA | -0.0129 ± 0.011
GCCGTGAC | 0.199 ± 0.011
CGGAGCAA | -0.127 ± 0.053
CTCTTACA | 0.0754 ± 0.034
CGGATCTA | -0.102 ± 0.079
ACACGCCA | 0.205 ± 0.0044
ACTCCCGC | 0.104 ± 0.022
ATGTAAAC | 0.0731 ± 0.026
GTTCGCCA | 0.158 ± 0.011

Sequence | PBM E-score of 8-mer
GCCCGCAA | -0.0375 ± 0.015
AAAGGACT | -0.281 ± 0.012
ACAGATAT | -0.032 ± 0.017
AAACTAAG | -0.151 ± 0.021
ACGTTTCG | 0.239 ± 0.066
CATCAAAA | -0.168 ± 0.033
GAATAGGA | -0.216 ± 0.0067
ATCATCAT | 0.00539 ± 0.079
TACGAAAA | -0.00221 ± 0.059
ACTAAAAC | -0.0913 ± 0.026
AGCTGTCC | 0.00624 ± 0.016
AGAGTTTG | 0.0201 ± 0.029
TACGCCTA | 0.0945 ± 0.018
GGGTGTCA | 0.475 ± 0.0055
CCCCGACC | -0.146 ± 0.005
CGGCAACA | 0.191 ± 0.04
AATAATGC | -0.0191 ± 0.025
CGTCACCA | 0.258 ± 0.03
AAACCTGC | -0.0548 ± 0.029
TAGAGCGA | -0.0324 ± 0.03
AAAAAGAG | -0.24 ± 0.048
CGGGACGA | -0.244 ± 0.043
ACTTAAGC | 0.185 ± 0.0074
CCAGGGCC | -0.00186 ± 0.02
GGAATGGA | -0.196 ± 0.031

Sequence | PBM E-score of 8-mer
AGACCGAG | -0.189 ± 0.04
GCGAATAA | 0.291 ± 0.029
AAGTCCAG | -0.241 ± 0.011
ACGATAAG | 0.152 ± 0.035
AATTCTAC | -0.119 ± 0.1
GCTTGCAA | 0.0892 ± 0.014
TAATCTCA | 0.0231 ± 0.018
ACGGGCTA | -0.229 ± 0.0092
CTTCTGAA | -0.117 ± 0.082
ACATGGCG | 0.0493 ± 0.0019
ATAGGTAG | -0.036 ± 0.12
AAGTTAAA | 0.0719 ± 0.053
CCGCGACG | 0.0384 ± 0.061
GGGGTATA | -0.198 ± 0.023
CGGCATTC | -0.0562 ± 0.032
GGACAAAA | -0.16539 ± 9.2e-05
ATGCACCC | 0.00698 ± 0.074
AGCCCACA | 0.152 ± 0.013
ACATGGAC | 0.142 ± 0.099
CACTCGAC | 0.101 ± 0.052
CTGGGAAG | 0.0242 ± 0.062
AAAGGGCC | -0.425 ± 0.043
CTGAGAAC | 0.0561 ± 0.038
TCATTTCA | 0.0743 ± 0.065
CAAATGTC | 0.0448 ± 0.019

Sequence | PBM E-score of 8-mer
ATTGGCGC | 0.244 ± 0.032
AACCGCAA | -0.0328 ± 0.037
GTCTCTAA | -0.0842 ± 0.0091
CCAAAGCC | -0.197 ± 0.079
ACACAGTC | 0.152 ± 0.069
CCGTCTAG | -0.161 ± 0.097
CTGATGCC | -0.187 ± 0.043
CTTTCTCC | -0.138 ± 0.0068
CTAATCAC | 0.139 ± 0.0056
ACTACATA | -0.231 ± 0.013
GCCCTAAC | -0.0612 ± 0.02
AAGGACTG | -0.0537 ± 0.072
GTTCCCGA | -0.0903 ± 0.0046
CTCATGGC | -0.0387 ± 0.0099
TAGCTATA | -0.17 ± 0.009
CTCACCAA | 0.133 ± 0.059
ACGTGCGA | 0.4353 ± 0.0022
ATGGAATC | -0.125 ± 0.063
CAGCACCC | 0.242 ± 0.024
GCTGGCAC | 0.202 ± 0.02
ATTTGTCC | 0.0415 ± 0.006
ATCAAGAG | -0.238 ± 0.078
ATTGGACC | -0.17 ± 0.016
ATGAATGG | -0.114 ± 0.0039
CGCAATTC | 0.169 ± 0.0051

Sequence | PBM E-score of 8-mer
ACGCGTAA | 0.244 ± 0.033
AGGCTCAA | -0.0724 ± 0.025
ACCCGGAT | 0.00386 ± 0.0088
CGGACCAG | -0.216 ± 0.011
ACACGGCG | 0.177 ± 0.07
CAAAGCGC | -0.0211 ± 0.062
ATCCCGCC | -0.0677 ± 0.065
ACCACAGG | 0.0755 ± 0.041
GGCTATAA | -0.0685 ± 0.0091
AGATAGAT | -0.223 ± 0.013
ATCTCACG | 0.29 ± 0.012
ATCCTTAG | -0.379 ± 0.063
AACCTCAT | -0.0711 ± 0.02
GCAACAGA | -0.0993 ± 0.047
GTATACGA | -0.115 ± 0.033
AATGAACA | -0.0898 ± 0.025
CAAAAGGC | 0.0691 ± 0.048
TTAAACAA | 0.0248 ± 0.054
CATCCGGG | -0.173 ± 0.013
CATTTTCC | -0.0437 ± 0.07
GGCACGCC | 0.149 ± 0.035
ATGTATAC | -0.102 ± 0.018
CATTGATC | -0.151 ± 0.064
GAACTTTA | -0.043 ± 0.015
CGGGCCTA | -0.265 ± 0.018

Sequence | PBM E-score of 8-mer
GACGAGCC | -0.0731 ± 0.024
CGGCCACA | 0.131 ± 0.1
GCATGCTA | 0.00793 ± 0.094
ACGACCCA | -0.00396 ± 0.0098
ACATCTCT | 0.0448 ± 0.034
AACATTTG | -0.0214 ± 0.0034
CTAGCTTC | -0.0765 ± 0.0019
AGTCGTCA | 0.27463 ± 0.00015
GGCAAAAA | 0.0671 ± 0.028
AAAACGCG | 0.0985 ± 0.0096
TGGCCAAA | -0.096 ± 0.031
ACCACCTC | 0.343 ± 0.046
CCCTACAA | -0.069 ± 0.016
GGAGGGTA | -0.0485 ± 0.045
CGCCAGTA | 0.0702 ± 0.01
GATCGTAC | -0.052 ± 0.014
AAGGTCCG | -0.181 ± 0.018
CAGTTTCC | -0.0764 ± 0.021
GATTCGCC | -0.0461 ± 0.029
CGGCATCC | -0.155 ± 0.023
AAGCAGGT | 0.102 ± 0.0054
ACCGGAGC | -0.182 ± 0.055
CGAATACG | 0.0203 ± 0.00074
CAACCTCG | 0.0554 ± 0.11
CTGTAAAC | 0.132 ± 0.0059

Sequence | PBM E-score of 8-mer
TAGAGGGA | -0.0885 ± 0.015
CGTATACC | -0.0262 ± 0.079
CTTCCCTC | -0.193 ± 0.094
ACCTCCCT | 0.00833 ± 0.034
ACGCCACA | 0.222 ± 0.036
CCAATCTA | -0.187 ± 0.03
AATCCCGC | -0.146 ± 0.015
AGTAAGTC | -0.229 ± 0.019
GCCTGACA | 0.177 ± 0.022
CTATCTAC | -0.0711 ± 0.021
TCTGTGCA | -0.112 ± 0.0015
TACCAACA | 0.129 ± 0.0035
TGGAGAAA | -0.013 ± 0.077
CCTCAGCC | -0.0938 ± 0.007
GGTCAACC | -0.138 ± 0.0015
GAGAGCAA | 0.0426 ± 0.034
AGCTTTAA | -0.261 ± 0.057
GAATCGTA | -0.0254 ± 0.00061
AGATTACA | 0.0164 ± 0.026
GCTAAACC | 0.0155 ± 0.053
ACTAAGAC | 0.065 ± 0.027
GTTCGCGA | 0.389 ± 0.0052
GAGCCGCC | -0.069 ± 0.08
CTGTCCCA | 0.0173 ± 0.11
CTCGTCAA | 0.201 ± 0.0083

Sequence | PBM E-score of 8-mer
AGTTATAC | 0.104 ± 0.067
ACCGAGAC | -0.075 ± 0.046
GCATGTCA | -0.0623 ± 0.024
CGTCGAAA | -0.154 ± 0.044
GCTTCAAC | -0.107 ± 0.059
GGCCGAAC | -0.234 ± 0.054
CCCTCCGG | 0.0132 ± 0.028
CCAAAGAG | 0.0924 ± 0.018
TCGTATAA | -0.166 ± 0.038
AAATAACC | -0.00923 ± 0.0017
AATTTTGG | -0.00148 ± 0.064
GAGGTGAA | 0.198 ± 0.0028
CAACCGTG | 0.25 ± 0.011
CCCACATC | 0.224 ± 0.064
ACGAGTAC | 0.00244 ± 0.049
AGAGGAGG | 0.146 ± 0.035
ATACGCCA | 0.0803 ± 0.057
CACGCCCA | 0.252 ± 0.083
AAGGAATA | -0.0518 ± 0.013
CGGCGGGA | -0.0057 ± 0.021
ACCATGAT | 0.11 ± 0.035
CTAGTCAA | -0.0107 ± 0.02
CGGCCAAG | -0.0792 ± 0.044
GGGTAGAC | -0.19 ± 0.027
TTGGCAAA | 0.103 ± 0.11

Sequence | PBM E-score of 8-mer
CTCTTGCA | -0.0858 ± 0.0045
TAATGGCA | 0.102 ± 0.061
ATCTCACC | 0.422 ± 0.0058
ACCTTGAC | 0.255 ± 0.067
ACATCCTC | 0.094 ± 0.0043
CGCTCGCC | 0.0162 ± 0.1
CTCCGCGA | 0.204 ± 0.03
AGTCTCCA | -0.238 ± 0.062
GCTCAAGA | -0.106 ± 0.025
CTGTATTC | -0.0355 ± 0.039
GGTGTGTA | 0.356 ± 0.008
CCGAATCC | -0.198 ± 0.088
CCGATGAG | -0.233 ± 0.028
CCATTGCC | -0.101 ± 0.038
ACGCTAAT | 0.1008 ± 0.001
CAGGACGG | -0.228 ± 0.041
ATCTCAAT | -0.0549 ± 0.081
ACAGTGCT | 0.0176 ± 0.048
ATTTAAAC | -0.138 ± 0.03
